Measurements published in a collection of fitness landscapes (doi:10.1016/j.celrep.2020.107928).
Over roughly 81,000 sequences, “one-hybrid fitness for binding parS DNA” has its median near -0.17; the highest 2% begin near 0.51. This is one part of the list.

B1: Caulobacter ParB omega fusion; a variant is named by its letters at X, in order, B8GW30 (parent)
chain: MESVVVGEPGMSEGRRGLGRGLSALLGEVDAAPAQAPGEQLGGSREAPIEILQRNPDQPRRTFREEDLEDLSNSIREKGVLQPILVRPSPDTAGEYQIVAGERAWRAAQRAGLKTVPIMVRELDDLAVLEIGIIENVQRADLNVLEEALSYKVLMEKFERTQENIAQTIGKSXSHVANXMRLLXLPDEVQSYLVSGELTAXHARAIAAAADPVALAKQIIEGGLSVRETEALARKAPNLSAGKSKGGRPPRVKDTDTQALESDLSSVLGLDVSIDHRGSTGTLTITYATLEQLDDLCNRLTRGI

Variants of: B1
Assay: one-hybrid fitness for binding parS DNA (scaled: cognate 1, non-cognate 0); higher = stronger binding
Conditions: with parS DNA site
In short: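 Pre- and post-selection plasmids were Illumina-sequenced, three replicate libraries were pooled, and any variant with under 10 reads was removed. The libraries were Caulobacter ParB with four specificity codons randomised, selected in E. coli USO through a HIS3 reporter whose site is 19 bp from the promoter. Cells grew 48 hours at 37°C on M9 without histidine, with 0.1 mM IPTG and 5 mM 3-AT. Fitness is the log change in variant-to-wild-type read ratio, rescaled against cognate and non-cognate.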

Variant | one-hybrid fitness for binding parS DNA
PSAK | ≤ 0.2
FGKK | ≤ 0.2
QRPQ | ≤ 0.2
AFNF | ≤ 0.2
LRAV | ≤ 0.2
LTFT | ≤ 0.2
NENS | ≤ 0.2
DITA | ≤ 0.2
VGTI | ≤ 0.2
SRQY | ≤ 0.2
FRDC | ≤ 0.2
TDNQ | ≤ 0.2
RCPF | ≤ 0.2
RAAL | ≤ 0.2
TTGR | ≤ 0.2
QLHP | ≤ 0.2
TGFD | ≤ 0.2
PSAM | ≤ 0.2
NHKY | ≤ 0.2
CVYI | ≤ 0.2
QYSL | ≤ 0.2
FLIR | ≤ 0.2
PCLL | ≤ 0.2
PAHW | ≤ 0.2

Variant | one-hybrid fitness for binding parS DNA
SFGL | ≤ 0.2
DFYI | 0.313
DRTM | ≤ 0.2
IRMD | ≤ 0.2
AQGE | ≤ 0.2
DDMG | ≤ 0.2
QEDI | ≤ 0.2
NVYR | ≤ 0.2
HQMC | ≤ 0.2
LGPW | ≤ 0.2
RNHG | 0.866
AAFT | ≤ 0.2
RTDI | ≤ 0.2
MHLY | ≤ 0.2
PGGC | ≤ 0.2
KPLF | ≤ 0.2
QDSF | ≤ 0.2
SCNC | ≤ 0.2
VCKT | ≤ 0.2
PQFM | ≤ 0.2
NLGT | ≤ 0.2
CLMS | ≤ 0.2
KNST | ≤ 0.2
ATFD | ≤ 0.2

Variant | one-hybrid fitness for binding parS DNA
CHTD | ≤ 0.2
HGNR | ≤ 0.2
VMHG | ≤ 0.2
TPFY | ≤ 0.2
EMEL | ≤ 0.2
GPTP | ≤ 0.2
EAGM | ≤ 0.2
VQSD | 0.28
LRDT | ≤ 0.2
HNTS | ≤ 0.2
RWMM | ≤ 0.2
AACY | ≤ 0.2
FKEG | ≤ 0.2
ANHR | ≤ 0.2
SDAS | ≤ 0.2
HKMN | ≤ 0.2
CFGG | ≤ 0.2
VMYN | ≤ 0.2
NQFG | ≤ 0.2
DFAH | ≤ 0.2
QRKK | ≤ 0.2
EPTF | ≤ 0.2
ERQT | ≤ 0.2
ATNF | ≤ 0.2

Variant | one-hybrid fitness for binding parS DNA
RDNY | ≤ 0.2
RHSN | 0.379
SSRF | ≤ 0.2
RTNE | ≤ 0.2
NGPF | ≤ 0.2
WPFW | ≤ 0.2
PNNF | ≤ 0.2
QQCE | ≤ 0.2
QDGM | ≤ 0.2
IGTI | ≤ 0.2
GIMG | ≤ 0.2
MFKL | ≤ 0.2
LQTW | ≤ 0.2
RMFP | ≤ 0.2
PARL | ≤ 0.2
HEWS | ≤ 0.2
RLQH | 0.324
VQWW | ≤ 0.2
KTIF | ≤ 0.2
RGCN | ≤ 0.2
SKTN | ≤ 0.2
TESI | ≤ 0.2
VSHD | ≤ 0.2
VADY | ≤ 0.2

Variant | one-hybrid fitness for binding parS DNA
WGYT | ≤ 0.2
ERYS | ≤ 0.2
HAPG | ≤ 0.2
QRHN | ≤ 0.2
HGGS | ≤ 0.2
VGGC | ≤ 0.2
FLLR | ≤ 0.2
PYGC | ≤ 0.2
RMMF | 0.247
RRFA | 0.806
PFEA | ≤ 0.2
LYSY | ≤ 0.2
ACTT | ≤ 0.2
QYRL | ≤ 0.2
QIAW | ≤ 0.2
YRPA | ≤ 0.2
HHWN | ≤ 0.2
WSKE | ≤ 0.2
LYQR | ≤ 0.2
PHNF | ≤ 0.2
AEGT | ≤ 0.2
CCRD | ≤ 0.2
WAWS | ≤ 0.2
APRS | ≤ 0.2

Variant | one-hybrid fitness for binding parS DNA
LYAC | ≤ 0.2
KWCC | ≤ 0.2
EAAN | ≤ 0.2
QCSI | ≤ 0.2
YPNF | ≤ 0.2
KKRY | ≤ 0.2
QFHA | ≤ 0.2
MVSY | ≤ 0.2
KSNL | ≤ 0.2
SHYD | ≤ 0.2
RWDR | ≤ 0.2
SDMY | ≤ 0.2
TFSF | ≤ 0.2
KSSM | ≤ 0.2
SFAR | ≤ 0.2
EHQL | ≤ 0.2
ETDG | ≤ 0.2
SNLT | ≤ 0.2
NTFH | ≤ 0.2
MSLM | ≤ 0.2
HVQS | ≤ 0.2
LGPC | ≤ 0.2
YFDS | ≤ 0.2
QSWI | ≤ 0.2

Variant | one-hybrid fitness for binding parS DNA
KNWD | ≤ 0.2
SLDK | ≤ 0.2
ECLV | ≤ 0.2
KTCS | ≤ 0.2
QPTD | ≤ 0.2
IAMH | ≤ 0.2
NLGM | ≤ 0.2
WGLC | ≤ 0.2
RYAD | ≤ 0.2
MGGQ | ≤ 0.2
YTWF | ≤ 0.2
HLVA | ≤ 0.2
HGKV | ≤ 0.2
LCKK | ≤ 0.2
IRKH | 0.213
KSWV | ≤ 0.2
QAYR | ≤ 0.2
CFDS | ≤ 0.2
CICR | ≤ 0.2
AKRA | ≤ 0.2
PLSP | ≤ 0.2
ACYG | ≤ 0.2
KWTI | ≤ 0.2
LWNC | ≤ 0.2

Variant | one-hybrid fitness for binding parS DNA
GHYS | ≤ 0.2
SVPK | ≤ 0.2
QHFT | ≤ 0.2
YTIY | ≤ 0.2
PWGA | ≤ 0.2
PAGH | ≤ 0.2
QFNA | ≤ 0.2
YEDG | ≤ 0.2
PVVL | ≤ 0.2
TSHW | ≤ 0.2
TQSV | ≤ 0.2
HNQR | ≤ 0.2
SSGS | ≤ 0.2
RWTH | ≤ 0.2
SDAC | ≤ 0.2
YQWG | ≤ 0.2
TSVC | ≤ 0.2
CRGD | ≤ 0.2
NWIC | ≤ 0.2
LCPA | ≤ 0.2
VAPQ | ≤ 0.2
RLPL | ≤ 0.2
RFQA | 0.579
LDTR | ≤ 0.2

Variant | one-hybrid fitness for binding parS DNA
TMSA | ≤ 0.2
ANRC | ≤ 0.2
DNTH | ≤ 0.2
EVAA | ≤ 0.2
RKLE | ≤ 0.2
HQSH | ≤ 0.2
AWCR | ≤ 0.2
LKAL | ≤ 0.2
PPMR | ≤ 0.2
VLDG | ≤ 0.2
HQSV | ≤ 0.2
EWNT | ≤ 0.2
PNSY | ≤ 0.2
PPAY | ≤ 0.2
SHFW | ≤ 0.2
VRNH | ≤ 0.2
LFHL | ≤ 0.2
GRIA | ≤ 0.2
ACYS | ≤ 0.2
RAFV | ≤ 0.2
YLHC | ≤ 0.2
LHGR | ≤ 0.2
QIDW | ≤ 0.2
CCDG | ≤ 0.2

Variant | one-hybrid fitness for binding parS DNA
HLSS | ≤ 0.2
PTDR | ≤ 0.2
SFKS | ≤ 0.2
VVEW | ≤ 0.2
SATW | ≤ 0.2
SLVT | ≤ 0.2
SSGE | ≤ 0.2
LMEK | ≤ 0.2
KRNV | ≤ 0.2
WCRG | ≤ 0.2
QSCI | ≤ 0.2
PFQC | ≤ 0.2
VLWC | ≤ 0.2
AGDT | ≤ 0.2
ILSF | ≤ 0.2
LLLE | ≤ 0.2
RVDN | 0.371
RCNY | 0.482
ANKS | ≤ 0.2
LDHI | ≤ 0.2
RQSC | 0.968
QQNG | ≤ 0.2
RYKL | ≤ 0.2
RIIR | ≤ 0.2

Variant | one-hybrid fitness for binding parS DNA
PSYD | ≤ 0.2
CCCS | ≤ 0.2
SGIH | ≤ 0.2
NRYN | ≤ 0.2
GDWR | ≤ 0.2
TISV | ≤ 0.2
ADNH | ≤ 0.2
MNRV | ≤ 0.2
AHWD | ≤ 0.2
LATL | ≤ 0.2
VWPM | ≤ 0.2
QLAA | ≤ 0.2
YWQT | ≤ 0.2
FAKY | ≤ 0.2
NIHY | ≤ 0.2
IGLK | ≤ 0.2
RHFM | 0.202
RCTY | 0.494
QSCF | ≤ 0.2
QFPN | ≤ 0.2
QQAI | ≤ 0.2
LQAT | ≤ 0.2
HSQS | ≤ 0.2
NSYH | ≤ 0.2

Variant | one-hybrid fitness for binding parS DNA
SRRI | ≤ 0.2
TAVH | ≤ 0.2
YETR | ≤ 0.2
RVCL | ≤ 0.2
NKGS | ≤ 0.2
QCVV | ≤ 0.2
HTCC | ≤ 0.2
FNLR | ≤ 0.2
VQTC | ≤ 0.2
GDVC | ≤ 0.2
MHTH | ≤ 0.2
TTRD | ≤ 0.2
RFVD | ≤ 0.2
RHRA | 0.58
EVPT | ≤ 0.2
VLVV | ≤ 0.2
TFIW | ≤ 0.2
SPSC | ≤ 0.2
QCQF | ≤ 0.2
LHYT | ≤ 0.2
GQTK | ≤ 0.2
RHWC | 0.759
SLQC | ≤ 0.2
NWGC | ≤ 0.2

Variant | one-hybrid fitness for binding parS DNA
KPCG | ≤ 0.2
RKNP | ≤ 0.2
ENFG | ≤ 0.2
IHMG | ≤ 0.2
WVVR | ≤ 0.2
PLAW | ≤ 0.2
PLDW | ≤ 0.2
ELCC | ≤ 0.2
RRLE | ≤ 0.2
TAAF | ≤ 0.2
TNWG | ≤ 0.2
THLG | ≤ 0.2
PGSV | ≤ 0.2
WRST | ≤ 0.2
HRGF | ≤ 0.2
YYLG | ≤ 0.2
RRNW | ≤ 0.2
LTGY | ≤ 0.2
